Results on 83 variants are retold here after the RNAGym collection of RNA variant scans (doi:10.1073/pnas.2313332121).

Variants at the background level are over-represented here.

B1: TPR 5TU (parent)
chain: GGAUCUUCUCGAUCUAACAAAAAAGACAAAUCUGCCACAAAGCUUGAGAGCAUCUUCGGAUGCAGAGGCGGCAGCCUUCGGUGGCGCGAUAGCGCCAACGUUCUCAACUAUGACACGCAAAACGCGUGCUCCGUUGAAUGGAGUUUAUCAUG

The data set covers variants of B1. Put plainly: polymerase ribozyme fitness, log enrichment relative to wild type (log ratio); higher = more active; in vitro selection for triplet polymerase activity. An outline of the steps: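 Mutant libraries of each subunit of a heterodimeric triplet polymerase ribozyme were built by PCR and transcribed. Each library went through one round of in vitro selection in triplicate: annealing with biotinylated primer, partner subunit and triplets, frozen incubation at −7 °C, gel excision of extended constructs, streptavidin-bead capture and RT-PCR. Input and output libraries were Illumina-sequenced; only genotypes with ≥10 input reads and ≥1 read per output were kept. Fitness is log2(genotype enrichment/wild-type enrichment), using inverse-variance-weighted replicate averages.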
Consider A49U C75G C93U U101G, for which the “polymerase ribozyme fitness (log ratio)” value is at most -4.2.

On to A49U U53A A64G G84U U90C C96A A97G G124U G140A, for which the “polymerase ribozyme fitness (log ratio)” value was at most -4.2.

As for G48C A49C A122U, the “polymerase ribozyme fitness (log ratio)” value was -3.93.

In the case of A49C C54A C99A A113G G140C A147C, the “polymerase ribozyme fitness (log ratio)” value is at most -4.2.

As for G50A C57A C99A, the “polymerase ribozyme fitness (log ratio)” value is -2.67.

For G50A U82A C93U C95G G140C A150G G152U, the “polymerase ribozyme fitness (log ratio)” value is at most -4.2.

For the variant A49G G81U G92A G141C, the “polymerase ribozyme fitness (log ratio)” value is at most -4.2.

With A47U C63G C69G C76A A91U C96U G117U G140C, the “polymerase ribozyme fitness (log ratio)” value is at most -4.2.

In the case of A49C A64G G70C G88C G94A A106U, the “polymerase ribozyme fitness (log ratio)” value was at most -4.2.

For G48C C114A A115U, the “polymerase ribozyme fitness (log ratio)” value is at most -4.2.

For the variant A49U U90A A115G, the “polymerase ribozyme fitness (log ratio)” value was at most -4.2.

For the variant A49G U139A, the “polymerase ribozyme fitness (log ratio)” value is -4.08.

In the case of A49C C99G, the “polymerase ribozyme fitness (log ratio)” value is at most -4.2.

With A49U G50A A73G C76G A89G C129G, the “polymerase ribozyme fitness (log ratio)” value is at most -4.2.

Turning to A49G G50A G140U, the “polymerase ribozyme fitness (log ratio)” value was -3.96.

For G48A A49U U53A U56A A91C C105U A106U, the “polymerase ribozyme fitness (log ratio)” value was at most -4.2.

For G50A C54U C85U C93U G94U G117A, the “polymerase ribozyme fitness (log ratio)” value is -3.95.

As to A49U A60C, the “polymerase ribozyme fitness (log ratio)” value is -3.47.

Consider G48A G88A G128A, for which the “polymerase ribozyme fitness (log ratio)” value was at most -4.2.

In the case of A47U G68A G83A C149A, the “polymerase ribozyme fitness (log ratio)” value is at most -4.2.

With G50A G68A G74A C75G C93U A107C C131G, the “polymerase ribozyme fitness (log ratio)” value was at most -4.2.

Regarding G50A U56G G83U A113U, the “polymerase ribozyme fitness (log ratio)” value was at most -4.2.

For the variant G50A C93G C96U, the “polymerase ribozyme fitness (log ratio)” value is at most -4.2.

Consider A49G G50A A52G A60C C93A C116A A120U, for which the “polymerase ribozyme fitness (log ratio)” value was at most -4.2.

Turning to A49C C87A C132A, the “polymerase ribozyme fitness (log ratio)” value was at most -4.2.

As to A49G A52C G94A U102C U151G, the “polymerase ribozyme fitness (log ratio)” value is at most -4.2.

Regarding G48A C87A, the “polymerase ribozyme fitness (log ratio)” value was at most -4.2.

Turning to A49G U55G C57U A60G C75G C76U U90A U102C U134G G140C, the “polymerase ribozyme fitness (log ratio)” value was at most -4.2.

For G50C A97G A106U C108U G140C A147C, the “polymerase ribozyme fitness (log ratio)” value was at most -4.2.

For A49G G71A C93G, the “polymerase ribozyme fitness (log ratio)” value was at most -4.2.

As to A49C U77G G94C, the “polymerase ribozyme fitness (log ratio)” value was at most -4.2.

As to G50A C69A C76G, the “polymerase ribozyme fitness (log ratio)” value is at most -4.2.

On to A49G G70A G140U, for which the “polymerase ribozyme fitness (log ratio)” value was at most -4.2.

With A49C C51U C57A, the “polymerase ribozyme fitness (log ratio)” value is at most -4.2.

Consider G48U G58A C75A A91U C95A A119U, for which the “polymerase ribozyme fitness (log ratio)” value was at most -4.2.

Regarding G48U A52C C63A A64C A73G C87A C103G U135C, the “polymerase ribozyme fitness (log ratio)” value is at most -4.2.

Turning to A49C U134C, the “polymerase ribozyme fitness (log ratio)” value is at most -4.2.

Take G50A G80A G88U C149A: the “polymerase ribozyme fitness (log ratio)” value is at most -4.2.

For the variant A49C A52G C93U A121C, the “polymerase ribozyme fitness (log ratio)” value is at most -4.2.

In the case of G50A C96U, the “polymerase ribozyme fitness (log ratio)” value is -1.47.

For A47U U78G G86A A97G A150U, the “polymerase ribozyme fitness (log ratio)” value is at most -4.2.

For G50A G67U C79U G86C U101A C116G, the “polymerase ribozyme fitness (log ratio)” value is at most -4.2.

Take G50C A52C G86U C87A: the “polymerase ribozyme fitness (log ratio)” value is at most -4.2.

Consider A49C C85G, for which the “polymerase ribozyme fitness (log ratio)” value was at most -4.2.

As to A47U G86U U134A, the “polymerase ribozyme fitness (log ratio)” value is -3.84.

For G48A C99U U111A A137G A147C, the “polymerase ribozyme fitness (log ratio)” value was at most -4.2.

A49C U77C G94A C131U: the “polymerase ribozyme fitness (log ratio)” value is at most -4.2.

Regarding A49C G84A A142C A147U, the “polymerase ribozyme fitness (log ratio)” value is at most -4.2.

For the variant A49U U77C A122U, the “polymerase ribozyme fitness (log ratio)” value is at most -4.2.

Take A49U U56A C99G A147G: the “polymerase ribozyme fitness (log ratio)” value is at most -4.2.

Regarding G48C A49C G59C C63A C85U A91C, the “polymerase ribozyme fitness (log ratio)” value is at most -4.2.

On to A49U C87A C95U, for which the “polymerase ribozyme fitness (log ratio)” value is at most -4.2.

G50A U56G C85U A115C U144G: the “polymerase ribozyme fitness (log ratio)” value was -2.74.

As for G48C C87G C99U, the “polymerase ribozyme fitness (log ratio)” value is at most -4.2.

Consider A49U C63U C93U C105G U145G, for which the “polymerase ribozyme fitness (log ratio)” value is at most -4.2.

As for G48A C51G G92A C95G, the “polymerase ribozyme fitness (log ratio)” value was at most -4.2.

In the case of G50C A91U U144C C149U, the “polymerase ribozyme fitness (log ratio)” value was at most -4.2.

On to G48U C79A C93U C132A U148A, for which the “polymerase ribozyme fitness (log ratio)” value is at most -4.2.

With A49G G50U C51U C96U A98C G126A U134G U146A, the “polymerase ribozyme fitness (log ratio)” value is -3.95.

As for A49G A52G U55A G67A A107U G133C A137G U139C, the “polymerase ribozyme fitness (log ratio)” value is at most -4.2.

For the variant A49U U56G C85U G86U U102C, the “polymerase ribozyme fitness (log ratio)” value was at most -4.2.

Take G48A A106G: the “polymerase ribozyme fitness (log ratio)” value was -1.77.

In the case of G50C A52C U56C C96U A107U, the “polymerase ribozyme fitness (log ratio)” value was at most -4.2.

Regarding A49U C85G C103G C118G C125G, the “polymerase ribozyme fitness (log ratio)” value was at most -4.2.

As for G50C A91U A120U A147G, the “polymerase ribozyme fitness (log ratio)” value is at most -4.2.

For A49U G50U C69U C72A C96A C103A C116G, the “polymerase ribozyme fitness (log ratio)” value was at most -4.2.

Regarding A49C C76U G94C A147U, the “polymerase ribozyme fitness (log ratio)” value is at most -4.2.

Turning to A49G C54A C118A, the “polymerase ribozyme fitness (log ratio)” value was -3.25.

As for G50C A52U A73U G141A, the “polymerase ribozyme fitness (log ratio)” value was at most -4.2.

A49C C57G G68C G83C G84A U101G A115U: the “polymerase ribozyme fitness (log ratio)” value was at most -4.2.

In the case of A49G C105U A113G A115C A147U, the “polymerase ribozyme fitness (log ratio)” value is at most -4.2.

In the case of A49C G50A U55G G59U C87A U127C A138C U146A, the “polymerase ribozyme fitness (log ratio)” value is at most -4.2.

On to G48C U56C A73G C118A, for which the “polymerase ribozyme fitness (log ratio)” value was -2.46.

As for A47U U55A, the “polymerase ribozyme fitness (log ratio)” value was -0.542.

Consider G48A C57A C125U, for which the “polymerase ribozyme fitness (log ratio)” value was -1.74.

A49G C87A: the “polymerase ribozyme fitness (log ratio)” value is at most -4.2.

As for A49U C63A U144A U151C, the “polymerase ribozyme fitness (log ratio)” value is at most -4.2.

As for G50A A97G A138C, the “polymerase ribozyme fitness (log ratio)” value was -4.01.

On to A49G C63U G81C U104G, for which the “polymerase ribozyme fitness (log ratio)” value was -2.29.

As for G50C C51G A121U U139G, the “polymerase ribozyme fitness (log ratio)” value was at most -4.2.

For the variant G50A U53A A107U G141C, the “polymerase ribozyme fitness (log ratio)” value is at most -4.2.

For G50A U55G G58C C69A C93A C95G A120G G126U G133A, the “polymerase ribozyme fitness (log ratio)” value is at most -4.2.

With A49G U55A G71A C96G A137U, the “polymerase ribozyme fitness (log ratio)” value is at most -4.2.
